# Data: a compilation of properties of binary mixtures (doi:10.52783/jheu.v45i07.3229)
# Some of these densities may be calculated back from excess volumes.
# Experiment: xn = mol fraction of the nth substance listed
# Settings: 298.15 K, 101.3 kPa
smiles,measurement,setting,value
CO + CCCC[n+]1ccccc1.F[B-](F)(F)F,mass density,x1 = 1,786.5 kg/m3
CCCC[n+]1ccccc1.F[B-](F)(F)F + CO,mass density,x2 = 0,1220 kg/m3
same,mass density,x2 = 0.1591,1205 kg/m3
same,mass density,x2 = 0.5381,1139.9 kg/m3
same,mass density,x2 = 0.6546,1102.9 kg/m3
same,mass density,x2 = 0.7624,1052.1 kg/m3
same,mass density,x2 = 0.8495,992.1 kg/m3
same,mass density,x2 = 0.9087,934.2 kg/m3
same,mass density,x2 = 0.951,878 kg/m3
same,mass density,x2 = 0.9688,847 kg/m3
